Assay results: PubChem BioAssay (Tox21)
Several values for one entry are separate records, joined by “and”; a condition that tells them apart may be missing. Equal values may be shown once. The inconclusive results got no clear call from the source; some entries with a clear call stand among them for comparison. Where the call is inconclusive, the potency comes from a doubtful curve fit. Activity calls are given as the source filed them. Unless noted, the call rests on the fitted dose curve; in most records, active means well fitted inhibition curve with a large enough effect in the signal ratio in the repeat runs; inconclusive means weak or mixed curves, or effect the other way; inactive means flat fitted curve, though single readings scatter; the % refers to the signal ratio.

Tested on: not listed separately
Assay: qHTS assay for small molecule agonists of the p53 signaling pathway (AID 651631; calls by dose curve; further: nearly all actives have a fitted effect of over 15% in size; on activation: on the % scale 0 is the no-effect control and ±100 the full control effect)
Conditions: HCT-116 p53RE-bla reporter, beta-lactamase FRET ratio, 16 h; activation: at 73.3 µM (top of the series) unless noted
Procedure, shortened: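 Agonist mode screen using a stably integrated beta-lactamase gene under p53 response elements in HCT-116 cells. Compound exposure lasts 16 h at 37 °C; fluorescence intensity is measured following 2 h FRET substrate loading.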
Potency means the concentration at half of the fitted maximal effect; tags describe the fitted curve by direction and shape or compound fluorescence and quenching.

| Compound | activation | Potency |
| --- | --- | --- |
| Clc1cc2c(cc1Cl)Oc1cc(Cl)c(Cl)cc1O2 | inactive: -5.64% [at 0.337 µM] | – |
| C/C(=N\NC(=O)Nc1cc(F)cc(F)c1)c1ncccc1C(=O)O | – | inactive |
| CN1CCc2cc(Cl)c(O)cc2[C@H]2c3ccccc3CC[C@@H]21 | – | inconclusive: 1.19 µM [activator, single point] |
| CCN(N=O)C(N)=O | inconclusive: -0.794% | – |
| CCOP(=O)(OCC)Oc1nc(Cl)c(Cl)cc1Cl | – | inconclusive: 5.42 µM [falling, full curve] |
| CC(=O)[O][Sn]([c]1ccccc1)([c]1ccccc1)[c]1ccccc1 | – | inconclusive: 4.33 µM [falling, full curve] |
| O=S1OCC2C(CO1)C1(Cl)C(Cl)=C(Cl)C2(Cl)C1(Cl)Cl (configuration not stated) | – | inconclusive: 68.7 µM [cytotoxic] and inconclusive: 76.9 µM |

Tested on: not listed separately
Assay: qHTS assay for small molecule disruptors of the mitochondrial membrane potential (AID 720635); on ratio activity, negative = MMP loss: on the % scale 0 is the no-effect control and ±100 the full control effect
Conditions: HepG2 mitochondrial membrane potential, Mito-MPS dye ratio; ratio activity, negative = MMP loss: at 83.2 µM (top of the series) unless noted
Procedure, shortened: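 Mitochondrial membrane potential tracked with Mito-MPS dye, red aggregates (ex 540/em 590 nm) against green monomers (ex 490/em 535 nm). Compound treatment 1 hr at 37C, dye 30 min in HepG2.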

| Compound | Potency | ratio activity, negative = MMP loss |
| --- | --- | --- |
| C[C@H]1O[C@@H](O[C@H]2[C@@H](O)C[C@H](O[C@H]3[C@@H](O)C[C@H](O[C@H]4CC[C@@]5(C)[C@H](CC[C@@H]6[C@@H]5CC[C@]5(C)[C@@H](C7=CC(=O)OC7)CC[C@]65O)C4)O[C@@H]3C)O[C@@H]2C)C[C@H](O)[C@@H]1O | active: 119 nM and active: 97.5 nM | – |
| O=C(CCCN1CCC2(CC1)C(=O)NCN2c1ccccc1)c1ccc(F)cc1 | active: 3.35 µM | – |
| O=C(O)COc1nc(Cl)c(Cl)cc1Cl | active: 19.8 µM | – |
| COP(=O)(OC)SCn1c(=O)oc2cc(Cl)cnc21 | inconclusive: 54.5 µM [activator, partial curve] | – |
| CCC(C)c1ccc(O)cc1 (configuration not stated) | active: 27.6 µM and active: 24.3 µM | – |
| C[C@]12CC[C@@H]3c4ccc(OC(=O)N(CCCl)CCCl)cc4CC[C@H]3[C@@H]1CC[C@@H]2O | inactive | – |
| COc1cccc(C(=O)CCN[C@@H](C)[C@H](O)c2ccccc2)c1 | inconclusive: 13.3 µM [inhibitor, single point] | – |
| Clc1ccc(C(Cl)(Cl)Cl)cn1 | inconclusive: 2.43 µM [rising, single point] | – |
| COc1cc(OC)c(OC)cc1C=O | inconclusive: 1.18 µM [activator, full curve, poor fit] | – |
| O=[N+]([O-])c1cccc(O)c1 | active: 43.4 µM | – |
| O=P(O)(O)CN(CP(=O)(O)O)CP(=O)(O)O | inconclusive: 0.754 µM [activator, full curve] | – |
| CN=CNc1ccc(C)cc1C | inconclusive: 5.45 µM [inhibitor] | – |
| c1ccc2c(c1)[nH]c1cnccc12 | inactive | – |
| Fc1ccc(C(OCCN2CCN(CCCc3ccccc3)CC2)c2ccc(F)cc2)cc1 | inconclusive: 5.55 µM [cytotoxic, partial curve, poor fit] | – |
| CCOC(=O)COc1cc(-c2nn(C)c(OC(F)F)c2Cl)c(F)cc1Cl | inconclusive: 0.433 µM [activator, full curve, poor fit] | – |
| O=C/C=C/c1ccccc1 | inactive | – |
| CCCOCC(=Nc1ccc(Cl)cc1C(F)(F)F)n1ccnc1 | active: 6.11 µM | – |
| Clc1ccc(C(Cl)(Cl)Cl)c(Cl)c1 | active: 61.6 µM | – |
| CC(C)C(Nc1ccc(C(F)(F)F)cc1Cl)C(=O)OC(C#N)c1cccc(Oc2ccccc2)c1 (configuration not stated) | active: 49 µM | – |
| Clc1cc2c(cc1Cl)Oc1cc(Cl)c(Cl)cc1O2 | inconclusive: 0.0053 µM [activator, full curve, poor fit] | – |
| C/C(=N\NC(=O)Nc1cc(F)cc(F)c1)c1ncccc1C(=O)O | inactive | – |
| CN1CCc2cc(Cl)c(O)cc2[C@H]2c3ccccc3CC[C@@H]21 | – | inconclusive: 31.8% |
| CCN(N=O)C(N)=O | – | inconclusive: 16.7% |
| CCOP(=O)(OCC)Oc1nc(Cl)c(Cl)cc1Cl | active: 60.8 µM | – |

Target: Glucocorticoid receptor (Homo sapiens) (UniProt P04150)
Chain of UniProt P04150 (P04150 whole entry, looked up): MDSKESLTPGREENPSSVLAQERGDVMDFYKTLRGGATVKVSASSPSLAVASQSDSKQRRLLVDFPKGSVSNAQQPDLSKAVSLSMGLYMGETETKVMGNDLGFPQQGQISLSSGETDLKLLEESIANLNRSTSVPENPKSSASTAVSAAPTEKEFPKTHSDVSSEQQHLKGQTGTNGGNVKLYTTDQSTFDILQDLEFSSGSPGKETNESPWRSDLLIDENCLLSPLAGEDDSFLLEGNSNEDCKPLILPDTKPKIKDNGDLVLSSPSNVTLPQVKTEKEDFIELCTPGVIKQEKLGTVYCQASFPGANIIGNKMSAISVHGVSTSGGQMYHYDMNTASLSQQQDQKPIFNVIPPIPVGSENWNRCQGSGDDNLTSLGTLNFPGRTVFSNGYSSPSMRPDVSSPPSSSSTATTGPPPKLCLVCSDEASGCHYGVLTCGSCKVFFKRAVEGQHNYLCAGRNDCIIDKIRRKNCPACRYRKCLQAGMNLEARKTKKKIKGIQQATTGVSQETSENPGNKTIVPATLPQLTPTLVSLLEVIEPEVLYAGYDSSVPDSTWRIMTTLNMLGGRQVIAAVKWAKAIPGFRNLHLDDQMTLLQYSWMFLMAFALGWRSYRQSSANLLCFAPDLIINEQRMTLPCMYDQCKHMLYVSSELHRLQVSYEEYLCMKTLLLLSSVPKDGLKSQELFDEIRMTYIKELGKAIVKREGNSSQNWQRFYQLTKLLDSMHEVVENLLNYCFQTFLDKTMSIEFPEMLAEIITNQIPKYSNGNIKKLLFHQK
Assay: qHTS assay to identify small molecule agonists of the glucocorticoid receptor (GR) signaling pathway (AID 720691; active means well fitted activation curve with a large enough effect in the signal ratio in the repeat runs, not every such curve was filed as active; inconclusive means weak or mixed curves, or effect the other way; inactive means no such curve, though single readings can be large or run the other way; the % refers to the signal ratio)
Conditions: GR-bla HeLa, beta-lactamase reporter ratio, 18 h; activation: at 62.4 µM (top of the series) unless noted
Procedure, shortened: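 GR-bla HeLa cells (beta-lactamase reporter under glucocorticoid response element) were plated 4 h at 37 C/5% CO2, given compounds in DMSO, and incubated 18 h at 37 C. LiveBLAzer B/G FRET substrate was added for 2 h at room temperature, then fluorescence intensity read.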

| Compound | Potency |
| --- | --- |
| C[C@H]1O[C@@H](O[C@H]2[C@@H](O)C[C@H](O[C@H]3[C@@H](O)C[C@H](O[C@H]4CC[C@@]5(C)[C@H](CC[C@@H]6[C@@H]5CC[C@]5(C)[C@@H](C7=CC(=O)OC7)CC[C@]65O)C4)O[C@@H]3C)O[C@@H]2C)C[C@H](O)[C@@H]1O | inconclusive: 26.8 µM [activator, single point] |
| O=C1C(Cl)=C(Cl)C(=O)c2ccccc21 | inconclusive: 39 µM [cytotoxic, partial curve] and inconclusive: 30.9 µM [cytotoxic, partial curve] |
| Clc1ccc(-c2ccc(Cl)c(Cl)c2Cl)c(Cl)c1Cl | inconclusive: 58.7 µM [cytotoxic] |
| ClC1=C(Cl)[C@]2(Cl)[C@@H]3[C@@H](Cl)[C@H]4O[C@H]4[C@@H]3C1(Cl)C2(Cl)Cl | inconclusive: 54.9 µM [cytotoxic, single point] |
| Clc1ccc(C(c2ccccc2Cl)C(Cl)(Cl)Cl)cc1 (configuration not stated) | inconclusive: 55.3 µM [cytotoxic, single point] and inconclusive: 40.5 µM |
| Fc1ccc(C(OCCN2CCN(CCCc3ccccc3)CC2)c2ccc(F)cc2)cc1 | inconclusive: 15.1 µM [cytotoxic, partial curve] |
| CCCOCC(=Nc1ccc(Cl)cc1C(F)(F)F)n1ccnc1 | inconclusive: 13.8 µM [cytotoxic, full curve] |
| CC(C)C(Nc1ccc(C(F)(F)F)cc1Cl)C(=O)OC(C#N)c1cccc(Oc2ccccc2)c1 (configuration not stated) | inconclusive: 49.4 µM [cytotoxic, single point] |
| N#CC(C#N)=NNc1cccc(Cl)c1 | inconclusive: 6.92 µM [cytotoxic, partial curve, poor fit] |
| CC(=O)[O][Sn]([c]1ccccc1)([c]1ccccc1)[c]1ccccc1 | inconclusive: 6.16 µM [cytotoxic, full curve] |
| O=S1OCC2C(CO1)C1(Cl)C(Cl)=C(Cl)C2(Cl)C1(Cl)Cl (configuration not stated) | inconclusive: 49 µM [cytotoxic, partial curve] and inconclusive: 54.9 µM |
